# Test results reported in the supplement of paper PMC3334620.
# In all, about 33,000 sequences were measured (“E-score (-0.5 to 0.5)”: median about -0.035, highest 2% from about 0.34 on). This is one part of the list.
# Biological target: T1, Mot3 (UniProt P54785)
# T1 sequence: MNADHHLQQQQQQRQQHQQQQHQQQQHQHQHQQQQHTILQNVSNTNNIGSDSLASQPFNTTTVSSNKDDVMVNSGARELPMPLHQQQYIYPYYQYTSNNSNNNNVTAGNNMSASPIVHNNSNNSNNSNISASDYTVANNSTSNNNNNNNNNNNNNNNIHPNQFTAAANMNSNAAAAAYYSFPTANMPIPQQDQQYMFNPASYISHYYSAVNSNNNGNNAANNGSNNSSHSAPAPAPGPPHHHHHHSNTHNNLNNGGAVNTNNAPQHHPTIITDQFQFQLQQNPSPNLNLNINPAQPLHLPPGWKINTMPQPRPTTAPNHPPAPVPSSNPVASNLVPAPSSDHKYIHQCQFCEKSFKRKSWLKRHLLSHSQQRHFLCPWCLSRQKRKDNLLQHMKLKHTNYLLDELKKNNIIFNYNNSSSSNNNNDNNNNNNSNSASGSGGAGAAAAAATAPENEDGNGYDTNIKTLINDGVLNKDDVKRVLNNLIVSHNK
# Test: PBM E-score (8-mer binding enrichment) (E-score (-0.5 to 0.5)); higher = stronger / more preferred TF binding; most listed sequences are background and not binding sites
# Settings: protein concentration: 200 nM; construct: GST-full length
# Procedure, shortened: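 Each ungapped eight-base word and its reverse complement, pooled, received an E-score from the Universal PBM Analysis Suite. Underlying scans, normalised with masliner, recorded fluorescent anti-GST bound to GST-tagged yeast transcription factors. These were applied at about 100-200 nM to universal all-10-mer Agilent arrays double-stranded by primer extension.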
row,Sequence,PBM E-score
1,ATGTTGTG,0.333
2,ACCGGCGC,-0.0888
3,ATAATCAC,-0.0146
4,TTACAAAA,0.278
5,AAGCCGAT,-0.0824
6,GGCCCAGA,-0.411
7,CCGTGCTC,-0.025
8,GGTATGAC,-0.141
9,ATATGTTC,0.0319
10,CCTCTGAA,-0.291
11,CCTCGTCC,-0.234
12,ACATAAAT,0.217
13,GGACTAAC,-0.231
14,CAGTCGAG,-0.249
15,AGGTCATA,-0.0537
16,AGCCTAAC,0.1
17,GCCCCACC,-0.365
18,CAATCCGA,-0.088
19,AGTGGCCC,-0.247
20,AAAGAATG,0.154
21,GACCTGGA,-0.167
22,AACCTCCT,-0.166
23,CCTGCGGC,-0.185
24,AAACCACC,-0.21
25,ACTACCCA,-0.0288

row,Sequence,PBM E-score
1,CCCCGGGA,-0.15
2,AGAAGATC,-0.154
3,CCAGTGCA,-0.167
4,AGCAACAT,0.161
5,CCGAGCTC,-0.0663
6,GTCGAGGA,-0.0194
7,ACCATGCC,0.0668
8,AACCACAG,-0.0518
9,TAGATACA,0.15
10,AAGGCGTC,0.121
11,GCCGTACC,0.0343
12,ACGAAATA,0.0999
13,CAGGCCGG,-0.169
14,ATCACTGA,-0.104
15,CTACTGCA,0.0194
16,ATCGTCAG,-0.0478
17,CAGTCAGG,0.136
18,CGCCTGTC,-0.00587
19,GAAATATA,0.17
20,CAAGAGAG,-0.158
21,ACGCCAAT,0.0255
22,CCTCGCAG,-0.145
23,AATAGACG,-0.138
24,ATTGTGAG,-0.109
25,CCTGCCCA,-0.108

row,Sequence,PBM E-score
1,CCGTGGAG,-0.397
2,CAGTCCGA,-0.057
3,CTGTAAAG,0.24
4,CATGCGAA,0.197
5,CCCTCATC,-0.139
6,CCGTCAGC,-0.368
7,ACCATCAA,-0.0603
8,CTAATATC,-0.145
9,GCCAGATA,-0.213
10,CTCACTAA,0.063
11,CTTAGGTC,-0.0764
12,AGCATACG,-0.107
13,ATCCCACG,-0.144
14,CGCTCAGA,0.0235
15,CCTTCGGA,0.126
16,AGCGCATA,-0.0903
17,AACTGCCA,-0.336
18,ACGTCATA,0.0809
19,CCTATAGC,0.0701
20,CGCCGCTA,-0.306
21,AGTGCCCA,0.137
22,TAAAGCTA,0.19
23,GATGGCAA,-0.0931
24,GGACGGAC,-0.42
25,AGTCCTTG,-0.124

row,Sequence,PBM E-score
1,AATACCGG,0.0447
2,ATCGTATC,-0.105
3,GCAAGAAA,0.0552
4,CCGAGACG,-0.0781
5,CGCAAGAA,-0.0261
6,AACTGCCG,-0.0686
7,CATGGGAC,-0.00718
8,GCACAGTA,-0.0809
9,CGACTTTC,0.0333
10,GCAGGGCC,-0.209
11,AACGGTCA,-0.214
12,GTGAAAAC,-0.0457
13,AGCGAAGC,-0.0443
14,CAAAAGCA,0.0722
15,AAGTTGAC,0.0257
16,CATCACCC,-0.298
17,ACAGCGCT,-0.00816
18,GGAGCAAC,-0.12
19,GGGAAACC,-0.00353
20,AAATCCGG,-0.208
21,GAACCGAA,-0.027
22,CCGAGACC,-0.0907
23,GTACTATA,0.163
24,TTAATCAA,0.205
25,AACTTACG,0.273

row,Sequence,PBM E-score
1,CAGGAAAC,0.445
2,GCTATTAC,0.234
3,ACAGTCTA,-0.00671
4,CCACTTGA,0.0447
5,TAGCACTA,-0.168
6,GGATGCCA,-0.267
7,GGTCAGTA,-0.141
8,GGGAATAC,0.239
9,GGTGATAA,-0.215
10,CGGGGCTC,-0.313
11,AGGTAAAT,0.318
12,CGAGGGGA,-0.213
13,CGTTAATC,0.162
14,CTAAACAA,0.0775
15,ATCCCCCG,-0.175
16,ACCAACCT,-0.0745
17,AATCCGAT,-0.0237
18,CAGAAACA,0.0657
19,GCAAACTA,0.148
20,ACACCTAA,0.168
21,AGCGGTTC,0.0842
22,ACGGAATG,-0.157
23,CCAGTGTC,0.0415
24,GGACTGAA,-0.13
25,ACACATAC,0.299

row,Sequence,PBM E-score
1,AAAGTGGT,-0.156
2,ATCAAGCC,-0.00984
3,CCGCGGGC,-0.252
4,CTAAATGA,-0.0149
5,AAGCCCTC,-0.0664
6,TCATAAAA,-0.0377
7,ATTCATCG,0.099
8,CGTGCCGC,-0.111
9,ACACTGAG,-0.128
10,ACTTGAAG,0.176
11,CAAAACGG,0.0166
12,GCTCTTCC,-0.118
13,AAACCGAC,-0.0399
14,ATCTCTGA,-0.0898
15,CCTAACCG,-0.00016
16,CGGCCTTA,-0.159
17,ACAAGTGC,0.201
18,CTCGAGCA,-0.0333
19,AGAATCAT,0.0403
20,CTTCATCC,-0.199
21,AAACCAGA,0.0875
22,ACGGGGAA,-0.0674
23,ACAGATGA,-0.0138
24,AACACCCT,-0.096
25,ATTGGTAA,-0.0692

row,Sequence,PBM E-score
1,GCGTGGCC,-0.0316
2,AGCGATGC,-0.257
3,ACACACGG,0.182
4,GCCTGAAA,0.274
5,GCGCACCC,-0.193
6,GAATAACC,-0.0707
7,ATGCTGAG,-0.281
8,CAACGCAG,-0.0527
9,AACCGACC,-0.131
10,CATGCTAA,0.259
11,GACGCTCC,-0.332
12,CACCTGCA,-0.0084
13,GTAGCCGA,-0.106
14,ACCCTTTC,0.104
15,ACAGACGC,-0.0211
16,GCCTCGTA,0.213
17,GAACGTGA,0.0923
18,CTAATGCA,0.157
19,CACGTCTC,0.0524
20,ATAAACCG,-0.195
21,GGGCGCCC,-0.398
22,CGTCGGAG,0.0541
